According to PubChem BioAssay (NCI):
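Protocol summary: plate cells (96-well), add compound at 5 concentrations, incubate 48 h, interpolate endpoints linearly. Abbreviation: GI50, concentration required for 50% inhibition of growth.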 Certain results were filed several times, with different values. The list is limited to them. An entry can have further records. For some of these results: A record mostly stands for its own series of concentrations, not given here; some values may only mark the edge of a range. For some of these results: The records of an entry are repeated measurements (runs, samples, wells, individuals or studies). Brackets tell where a record comes from. The letters are not those of the source and start again with each entry.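 TGI denotes the concentration required for complete inhibition of growth.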

Tests used:
Experiment in all cases: NCI-60 cell line screen, 48 h
CAKI-1 renal = test system: CAKI-1 renal
MOLT-4 leukemia = test system: MOLT-4 leukemia
NCI-H23 lung = test system: NCI-H23 lung
SF-539 CNS = test system: SF-539 CNS
HOP-62 NSCLC = test system: HOP-62 NSCLC
SK-MEL-28 melanoma = test system: SK-MEL-28 melanoma
HCC-2998 colon = test system: HCC-2998 colon
SNB-19 CNS = test system: SNB-19 CNS
RPMI-8226 leukemia = test system: RPMI-8226 leukemia
EKVX NSCLC = test system: EKVX NSCLC
SNB-78 CNS = test system: SNB-78 CNS
IGROV1 ovarian = test system: IGROV1 ovarian
SF-268 CNS = test system: SF-268 CNS
NCI-H226 lung = test system: NCI-H226 lung
KM12 colon = test system: KM12 colon
SK-OV-3 ovarian = test system: SK-OV-3 ovarian
NCI-H522 lung = test system: NCI-H522 lung
OVCAR-8 ovarian = test system: OVCAR-8 ovarian
HT29 colon = test system: HT29 colon
SK-MEL-5 melanoma = test system: SK-MEL-5 melanoma
OVCAR-4 ovarian = test system: OVCAR-4 ovarian
ACHN renal = test system: ACHN renal
SF-295 CNS = test system: SF-295 CNS
HL-60(TB) leukemia = test system: HL-60(TB) leukemia

Question: With `CC[C@](O)(C(=O)O)c1cc2n(c(=O)c1CO)Cc1cc3ccccc3nc1-2` as the molecule, how does the TGI (CAKI-1 renal) read?
Answer: 1.3 µM, 151 nM, 48.2 nM

Question: What about the TGI (MOLT-4 leukemia) of the same molecule?
Answer: 3.98 nM, 193 nM, 772 nM

Question: What about the TGI (NCI-H23 lung) of the same molecule?
Answer: 28.7 nM, 118 nM, 506 nM

Question: And the TGI (SF-539 CNS)?
Answer: 8.52 nM, 52.4 nM, 168 nM

Question: What about the TGI (HOP-62 NSCLC) of the same molecule?
Answer: 1.22 µM, 114 nM, 63.5 nM

Question: What about the TGI (SK-MEL-28 melanoma) of the same molecule?
Answer: 25 µM, 2.98 µM [mean of 2 tests] and 1.04 µM [mean of 3 tests]

Question: What about the GI50 (HCC-2998 colon) of the same molecule?
Answer: 6.67 nM [1 test] and 107 nM [mean of 2 tests]

Question: And the TGI (HCC-2998 colon)?
Answer: 25 nM [1 test] and 893 nM [mean of 2 tests]

Question: And the TGI (SNB-19 CNS)?
Answer: 18.1 µM, > 79 µM, 3.71 µM

Question: What about the TGI (RPMI-8226 leukemia) of the same molecule?
Answer: 221 nM [mean of 2 tests] and 4.97 µM [mean of 4 tests]

Question: What about the TGI (EKVX NSCLC) of the same molecule?
Answer: 14.8 µM, > 60.8 µM, 84.6 nM

Question: And the TGI (SNB-78 CNS)?
Answer: 4.54 µM [1 test] and 250 µM [mean of 2 tests]

Question: And the TGI (IGROV1 ovarian)?
Answer: 25 µM, 1.31 µM, 1.19 µM

Question: And the GI50 (SF-268 CNS)?
Answer: < 2.5 nM [1 test] and < 12.8 nM, 362 nM [mean of 2 tests]

Question: What about the TGI (SF-268 CNS) of the same molecule?
Answer: 25 µM [1 test] and 281 nM, 49 µM [mean of 2 tests]

Question: What about the GI50 (NCI-H226 lung) of the same molecule?
Answer: 12.4 nM [1 test] and 27 nM, 563 nM [mean of 2 tests]

Question: What about the TGI (KM12 colon) of the same molecule?
Answer: 15.1 µM, 1.26 µM [mean of 2 tests] and 9.89 µM [mean of 3 tests]

Question: What about the TGI (SK-OV-3 ovarian) of the same molecule?
Answer: 25 µM, 620 nM, 452 nM

Question: What about the GI50 (NCI-H522 lung) of the same molecule?
Answer: 5.2 nM [1 test] and 68 nM [mean of 2 tests]

Question: And the TGI (NCI-H522 lung)?
Answer: 2.71 µM, 290 nM, 2.95 µM

Question: What about the TGI (OVCAR-8 ovarian) of the same molecule?
Answer: 25 µM, 289 nM [1 test] and 770 nM [mean of 4 tests]

Question: And the TGI (HT29 colon)?
Answer: 25 µM, 349 nM, 11.9 µM

Question: What about the GI50 (SK-MEL-5 melanoma) of the same molecule?
Answer: 4.03 nM and 40.6 nM

Question: `Cc1cc(=O)c2c(O)c3c(O)cc(O)c4c5c(O)cc(O)c6c(O)c7c(=O)cc(C)c8c1c2c(c34)c(c65)c78` was tested. Which GI50 (OVCAR-4 ovarian) did it give?
Answer: > 100 µM [sample A, 1 test] and 8.51 µM [sample B, mean of 2 tests]

Question: For `CC1=C[C@H]2c3c(c(O)c(O)c4oc5cc(O)cc(O)c5c(=O)c34)[C@H](c3cc(O)c(O)c4oc5cc(O)cc(O)c5c(=O)c34)[C@H]2C(C)(C)C1`, which TGI (OVCAR-8 ovarian) is on record?
Answer: 9.18 µM [sample A, 1 test] and > 100 µM [sample B, 1 test]

Question: How did the TGI (ACHN renal) turn out when `Cc1cc2nc3ccc(N=Nc4ccc(N(C)C)cc4)cc3n(-c3ccccc3)c-2cc1=N` was run?
Answer: 110 nM and 1.21 µM

Question: What about the TGI (IGROV1 ovarian) of the same molecule?
Answer: 78.2 nM and 1.22 µM

Question: What about the TGI (SF-295 CNS) of the same molecule?
Answer: 77.3 nM and > 100 µM

Question: What about the TGI (NCI-H522 lung) of the same molecule?
Answer: 274 nM and > 100 µM

Question: What about the TGI (HL-60(TB) leukemia) of the same molecule?
Answer: 6.39 µM and 52.7 nM

Question: And the TGI (OVCAR-8 ovarian)?
Answer: 183 nM and > 100 µM
